Publication PMC10933458
Results are given in words; binding and its absence hold for the method and conditions named. For some assays here: Binding seen in cells or lysates may run through a third protein. Some results given as binding are weak or reduced against the parent protein; the word gives no strength. For some assays here: Where a sequence is shown, tags or fusion partners need not be part of it.

B1: full-length human TREM2 tagged with a Myc epitope at the C-terminus (TREM2-Myc) (receptor, UniProt Q9NZC2 19-230)
chain: HNTTVFQGVAGQSLQVSCPYDSMKHWGRRKAWCRQLGEKGPCQRVVSTHNLWLLSFLRRWNGSTAITDDTLGGTLTITLRNLQPHDAGLYQCQSLHGSEADTLRKVLVEVLADPLDHRDAGDLWFPGESESFEDAHVEHSISRSLLEGEIPFPPTSILLLLACIFLIKILAASALWAAAWHGQKPGTHPPSELDCGHDPGYQLQTLPGLRDT
B2: TREM2-δ/α-site-Myc (lacking amino acids 152–163, including the α-secretase cleavage site) (receptor, UniProt Q9NZC2)
chain: HNTTVFQGVAGQSLQVSCPYDSMKHWGRRKAWCRQLGEKGPCQRVVSTHNLWLLSFLRRWNGSTAITDDTLGGTLTITLRNLQPHDAGLYQCQSLHGSEADTLRKVLVEVLADPLDHRDAGDLWFPGESESFELEGEIPFPPTSILLLLACIFLIKILAASALWAAAWHGQKPGTHPPSELDCGHDPGYQLQTLPGLRDT
B3: TREM2-CTF-Myc (comprising amino acids 158-230) (domain or fragment, UniProt Q9NZC2 158-230)
chain: SISRSLLEGEIPFPPTSILLLLACIFLIKILAASALWAAAWHGQKPGTHPPSELDCGHDPGYQLQTLPGLRDT
B4: TREM2-W198Ter-Myc (TREM2 W198Ter variant, a truncated TREM2 protein lacking the intracellular domain) (receptor, UniProt Q9NZC2 19-197)
chain: HNTTVFQGVAGQSLQVSCPYDSMKHWGRRKAWCRQLGEKGPCQRVVSTHNLWLLSFLRRWNGSTAITDDTLGGTLTITLRNLQPHDAGLYQCQSLHGSEADTLRKVLVEVLADPLDHRDAGDLWFPGESESFEDAHVEHSISRSLLEGEIPFPPTSILLLLACIFLIKILAASALWAAA
B5: TREM2-δIg-like-Myc (lacking the Ig-like domain of TREM2 spanning amino acids 29-112) (receptor, UniProt Q9NZC2)
chain: HNTTVFQGVALHGSEADTLRKVLVEVLADPLDHRDAGDLWFPGESESFEDAHVEHSISRSLLEGEIPFPPTSILLLLACIFLIKILAASALWAAAWHGQKPGTHPPSELDCGHDPGYQLQTLPGLRDT
B6: endogenous mouse Bri2 (protein, UniProt O89051 1-266)
chain: MVKVTFNSALAQKEAKKDEPKSSEEALIVPPDAVAVDCKDPGDVVPVGQRRAWCWCMCFGLAFMLAGVILGGAYLYKYFALQPDDVYYCGLKYIKDDVILNEPSADAPAARYQTIEENIKIFEEDAVEFISVPVPEFADSDPANIVHDFNKKLTAYLDLNLDKCYVIPLNTSIVMPPKNLLELLINIKAGTYLPQSYLIHEHMVITDRIENVDNLGFFIYRLCHDKETYKLQRRETIRGIQKREASNCFTIRHFENKFAVETLICS
B7: recombinant TREM2-ECD (domain or fragment, UniProt Q9NZC2 19-174)
chain: HNTTVFQGVAGQSLQVSCPYDSMKHWGRRKAWCRQLGEKGPCQRVVSTHNLWLLSFLRRWNGSTAITDDTLGGTLTITLRNLQPHDAGLYQCQSLHGSEADTLRKVLVEVLADPLDHRDAGDLWFPGESESFEDAHVEHSISRSLLEGEIPFPPTS

Experiments:
[1] = biological target: full-length human BRI2 tagged with a 3xFLAG at the N-terminus (3xFLAG-BRI2) (human) (UniProt Q9Y287); assay: co-IP; HEK293 cells transfected with bicistronic plasmids 3xFLAG-BRI2 + TREM2-Myc variants; 3xFLAG-BRI2 precipitated with M2; blot with anti-human TREM2-NT or TREM2-CT; three independent transfections
[2] = biological target: T1, endogenous mouse Trem2 (mouse (endogenous in primary macrophages)) (UniProt Q99NH8); assay: co-IP; endogenous proteins; lysate of WT or Itm2b-KO mouse primary macrophages (0.5% NP40) precipitated with αTrem2-CT and protein A/G agarose; deglycosylated before the blot; done once
T1 sequence: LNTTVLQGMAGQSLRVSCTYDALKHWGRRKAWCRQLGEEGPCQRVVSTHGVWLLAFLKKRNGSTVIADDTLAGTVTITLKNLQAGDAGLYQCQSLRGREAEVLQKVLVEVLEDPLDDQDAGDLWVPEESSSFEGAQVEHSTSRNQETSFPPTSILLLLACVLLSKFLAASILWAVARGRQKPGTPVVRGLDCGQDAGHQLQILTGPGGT

[3] = biological target: recombinant BRI2-BRICHOS (human) (UniProt Q9Y287); assay: pull-down; cell-free; 3xFLAG-tagged BRI2-BRICHOS or BRI2-ECD with sTREM2 or TREM2-ECD, 2 μM each (also 4, 2, 1, 0.5, 0.25 and 0 μM BRI2 protein with 2 μM TREM2 protein), overnight at 4 degrees Celsius with M2-Agarose beads; washed, eluted with 3xFLAG peptide; blot with M2 or TREM2-NT; both purified
[4] = biological target: recombinant BRI2-ECD (human) (UniProt Q9Y287); assay: as above

| Binder | binding [1] | further results |
| --- | --- | --- |
| B1 | binds | – |
| B2 | binds | – |
| B3 | binds weakly | – |
| B4 | binds | – |
| B5 | binds | – |
| B6 | – | binding [2]: binds |
| B7 | – | binding [3]: binds; binding [4]: binds |
